From the supplement of paper PMC5998384

Experiments:
HeLa Kyoto [1] = test: solubility in G1/S (NP-40 vs SDS abundance) (log2 ratio); higher = more soluble; conditions: cell cycle stage: G1/S
HeLa Kyoto [2] = test: solubility change mitosis vs G1/S (difference of NP-40 vs SDS log2 ratios) (log2 ratio difference); higher = more soluble in mitosis
HeLa Kyoto [3] = test: melting temperature (median over replicates), in situ; higher = more thermally stable
HeLa Kyoto [4] = test: thermal stability score vs G1/S (z-score of summed log2 fold changes over temperatures); higher = more thermally stable than in G1/S
[5] = cell cycle stage: early G1 (4.5 h after nocodazole release)
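Throughout, for melting temperature (median over replicates), in situ: HeLa Kyoto cells synchronized by double thymidine or nocodazole block, proteins quantified by TMT10plex mass spectrometry, three independent biological replicates.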
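Throughout, for solubility change mitosis vs G1/S (difference of NP-40 vs SDS log2 ratios): synchronized HeLa Kyoto cells (double thymidine block for G1/S, nocodazole release for mitosis), protein amounts in NP-40 versus SDS lysates quantified by mass spectrometry, three biological replicates.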
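Throughout, for solubility in G1/S (NP-40 vs SDS abundance): HeLa Kyoto cells arrested at G1/S by double thymidine block, proteins quantified by TMT10plex mass spectrometry in mild NP-40 versus SDS extracts, three biological replicates.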
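Throughout, for thermal stability score vs G1/S (z-score of summed log2 fold changes over temperatures): synchronized HeLa Kyoto cells, proteins quantified by TMT10plex mass spectrometry, three biological replicates, mitosis taken 0.5 h after nocodazole release, G1/S directly after double thymidine block.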

| Substance | solubility in G1/S (log2) (HeLa Kyoto [1]) | solubility change mitosis (log2) (HeLa Kyoto [2]) | melting temperature (HeLa Kyoto [3]; cell cycle stage: G1/S) | melting temperature (HeLa Kyoto [3]; cell cycle stage: mitosis) | thermal stability score (HeLa Kyoto [4]; [5]) | thermal stability score (HeLa Kyoto [4]; cell cycle stage: mitosis) |
| --- | --- | --- | --- | --- | --- | --- |
| AXL (sequence left out) | -0.162 | 0.155 | – | – | – | – |
| COX5B (sequence left out) | 0.191 | 0.0454 | 54.3 °C | 52.7 °C | -2.92 | -4.57 |
| DIS3L (sequence left out) | -0.191 | -0.11 | – | – | – | – |
| FKBP10 (sequence left out) | 0.742 | -0.112 | 54.4 °C | 55.8 °C | 1.33 | 3.39 |
| GNL1 (sequence left out) | -0.0609 | -0.16 | 50.7 °C | 50.1 °C | -0.647 | 0.0916 |
| KMT2D | -0.125 | -0.00845 | 50.9 °C | 51.1 °C | 0.207 | 1.69 |
| MAD2L1 (sequence left out) | 0.0553 | -0.252 | 49.2 °C | 51 °C | 1.35 | 1.8 |
| MCM2 (sequence left out) | 0.0081 | -0.0607 | 50.6 °C | 50.7 °C | 1.47 | 2.62 |
| MET (sequence left out) | -0.021 | -0.106 | 50.8 °C | 50.7 °C | 0.399 | 1.18 |
| MPG (sequence left out) | -0.00106 | 0.229 | 50.5 °C | 52.6 °C | 0.782 | 1.26 |
| MRAHPGGGRCCPEQEEGESAAGGSGAGGDSAIEQGGQGSALAPSPVSGVRREGARGGGRGRGRWKQAGRGGGVCGRGRGRGRGRGRGRGRGRGRGRPPSGGSGLGGDGGGCGGGGSGGGGAPRREPVPFPSGSAGPGPRGPRATES[skipping about 60 residues]SKLQKNKQRLRNDPLNQNKGKPDLNTTLPIRQTASIFKQPVTKVTNHPSNKVKSDPQRMNEQPRQLFWEKRLQGLSASDVTEQIIKTMELPKGLQGVGPGSNDETLLSAVASALHTSSAPITGQVSAAVEKNPAVWLNTSQPLCKAFIVTDEDIRKQEERVQQVRKKLEEALMADILSRAADTEEMDIEMDSGDEA [MBD2] | 0.398 | 0.242 | 47.3 °C | 51.1 °C | – | – |
| MTCL1 (sequence left out) | -0.075 | 0.182 | 49.4 °C | 49.7 °C | 0.907 | 0.291 |
| MVP (sequence left out) | -0.0452 | 0.00478 | 52.7 °C | 51.6 °C | -2.41 | -4.22 |
| NDUFA9 (sequence left out) | -0.48 | -0.0973 | 50.7 °C | 50.1 °C | 0.953 | 2.32 |
| NDUFS4 (sequence left out) | 0.164 | 0.0161 | 52.9 °C | 52.5 °C | -1.24 | -4.28 |
| NDUFS7 (sequence left out) | 0.171 | 0.0189 | 52.2 °C | 52.1 °C | -0.183 | -0.803 |
| PCSK9 (sequence left out) | -0.0148 | -0.0179 | 53.6 °C | 53.5 °C | 4.01 | 3.53 |
| PPAT (sequence left out) | -0.0446 | -0.1 | 58.8 °C | 58.6 °C | -3.24 | -3.13 |
| PSMD3 (sequence left out) | 0.0712 | -0.0429 | 53.6 °C | 52.9 °C | 1.67 | 4.21 |
| RANBP2 (sequence left out) | -0.575 | 0.301 | 46.1 °C | 48.7 °C | 4.37 | 10.4 |
| VAPB (sequence left out) | 0.772 | 0.0358 | 52.4 °C | 52.9 °C | 1.18 | 1.24 |
